Out of some 310,000 compounds screened, about 2,200 (0.71%) showed an effect of 50% or more. The effect is printed as a negative number. This is one part of the list.
The compounds below were run against human ether-à-go-go-related gene (hERG) potassium channel (human, UniProt Q12809) (assay: primary screen, population patch clamp on CHO cells stably expressing hERG).
Sequence of human ether-à-go-go-related gene (hERG) potassium channel (Q12809 whole entry, looked up): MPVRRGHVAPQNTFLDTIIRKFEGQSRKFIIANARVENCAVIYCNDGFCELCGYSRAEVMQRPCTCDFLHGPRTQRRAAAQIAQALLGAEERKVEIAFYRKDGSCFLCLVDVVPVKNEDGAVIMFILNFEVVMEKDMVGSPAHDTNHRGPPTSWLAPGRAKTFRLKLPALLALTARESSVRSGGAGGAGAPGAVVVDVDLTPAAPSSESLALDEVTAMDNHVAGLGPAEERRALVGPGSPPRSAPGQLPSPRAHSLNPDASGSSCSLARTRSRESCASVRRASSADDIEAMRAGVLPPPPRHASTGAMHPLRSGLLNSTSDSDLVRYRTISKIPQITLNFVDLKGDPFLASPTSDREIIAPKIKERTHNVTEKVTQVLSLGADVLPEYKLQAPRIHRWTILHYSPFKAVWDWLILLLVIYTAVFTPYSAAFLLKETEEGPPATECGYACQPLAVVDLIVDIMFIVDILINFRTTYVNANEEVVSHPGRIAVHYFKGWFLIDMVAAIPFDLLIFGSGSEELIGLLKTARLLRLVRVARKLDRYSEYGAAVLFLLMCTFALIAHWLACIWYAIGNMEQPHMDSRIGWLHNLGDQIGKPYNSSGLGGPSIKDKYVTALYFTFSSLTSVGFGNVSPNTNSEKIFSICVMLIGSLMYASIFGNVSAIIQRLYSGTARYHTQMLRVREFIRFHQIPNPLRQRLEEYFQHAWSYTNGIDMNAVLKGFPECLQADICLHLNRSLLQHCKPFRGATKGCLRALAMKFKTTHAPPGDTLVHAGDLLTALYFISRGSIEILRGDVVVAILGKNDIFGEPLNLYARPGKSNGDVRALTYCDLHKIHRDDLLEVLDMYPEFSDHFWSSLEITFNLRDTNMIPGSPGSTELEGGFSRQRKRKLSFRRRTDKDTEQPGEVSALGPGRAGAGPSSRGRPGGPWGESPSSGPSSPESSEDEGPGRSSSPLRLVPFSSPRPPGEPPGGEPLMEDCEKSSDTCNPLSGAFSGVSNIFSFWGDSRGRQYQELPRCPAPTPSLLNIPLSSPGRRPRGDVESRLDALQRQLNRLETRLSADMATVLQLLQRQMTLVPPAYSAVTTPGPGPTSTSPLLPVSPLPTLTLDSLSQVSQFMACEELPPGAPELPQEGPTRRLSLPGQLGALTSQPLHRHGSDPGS

| SMILES | hERG current change (%, negative = inhibition) at 1uM [%] |
| --- | --- |
| COC(=O)c1ccc(C(=O)OC)c(=O)[nH]1 | 14.8 |
| Cc1nnc(NC(=O)C(C)Sc2nnc(-c3ccco3)n2C)s1 (centres unmarked) | 14.5 |
| O=C(OC(C(=O)NCc1cccs1)c1ccccn1)c1cccs1 (centres unmarked) | 5.25 |
| COc1ccc2c(c1)-c1nc(NC(=O)c3ccco3)sc1CC2 | 14.4 |
| Cc1oc(-c2cccs2)nc1CN1CCN(C(C)C)C(CCO)C1 (centres unmarked) | 12.9 |
| CC(=O)c1cc2c(cc1NC(=O)Cn1cnc3ccccc3c1=O)OCO2 | 0.594 |
| CCN(CC)CCCNc1oc(/C=C/c2ccccc2)nc1C#N | -17.7 |
| COC(=O)C1CN(C(=O)C(C)Oc2cccc(C)c2C)c2ccccc2O1 (centres unmarked) | 11.6 |
| COc1cccc(NC(=O)CC2C(=O)NC3CCCCC3N2C(=O)c2ccc(F)cc2)c1 (centres unmarked) | 9.58 |
| CC(C)CCN1CCN(Cc2ccc(C#CC(C)(C)O)s2)CC1CCO (centres unmarked) | 12 |
| CC(=O)c1cccc(Nc2ccc(-c3ccccc3F)nn2)c1 | -13.3 |
| Cc1n[nH]c(C)c1S(=O)(=O)N1CCCC(C(=O)NC2CCCc3ccccc32)C1 (centres unmarked) | 7.74 |
| CCC1=NN2C(=N)/C(=C\c3ccc(OCCOc4ccc(NC(C)=O)cc4)cc3)C(=O)N=C2S1 | 0.37 |
| COc1ccccc1NC(=O)C1CCCN(c2ncnc3c2nc2n3CCCCC2)C1 (centres unmarked) | -3.34 |
| O=S1(=O)N=C(N2CCN(c3ccc(F)cc3)CC2)c2ccccc21 | -0.769 |
| CC1(C)OC2OC(COC(=O)c3ccccc3)C3OC(C)(C)OC3C2O1 (centres unmarked) | 3.75 |
| FC(F)(F)c1cnc(Sc2nnc(-c3cccs3)n2CC2CCCO2)c(Cl)c1 (centres unmarked) | -4.86 |
| O=C(O)c1cccc2[nH]c(C(F)(F)F)nc12 | 6.71 |
| O=C(c1ccccc1)n1ccc2ccccc21 | 6.43 |

| SMILES | hERG current change (%, negative = inhibition) at 1uM [%] |
| --- | --- |
| O=C1c2ccccc2CN1CCNS(=O)(=O)c1ccc(Cl)cc1 | 5.79 |
| O=C(Nc1ccc(Cl)cc1)N1CCC(c2nc(-c3ccccc3Cl)no2)CC1 | 8.37 |
| CCN(Cc1ccccc1)C(=O)C1CCN(Cc2ccc(OC)c(OC)c2OC)CC1.O=C(O)C(=O)O | -13 |
| CCOc1ccc(/C=N/NC(=O)C(C)N(c2ccc(OC)cc2)S(C)(=O)=O)cc1OCC (centres unmarked) | 3.34 |
| N#C/C(=C(/O)c1ccc(S(=O)(=O)N(CCCl)CCCl)cc1)c1nc2ccccc2[nH]1 | 14.7 |
| CC(NC(=O)c1ccco1)C(=O)N1CCCCC1 (centres unmarked) | -0.698 |
| COCCNC(=O)c1cc2nc(-c3ccccc3)cc(C)n2n1 | 14.8 |
| CC1CCCCC1NC(=O)/C(C#N)=C/c1ccc(F)c(F)c1 (centres unmarked) | -1.92 |
| Cc1[nH]c2ccccc2c1/C=C(\C#N)S(=O)(=O)c1ccccc1 | 7.54 |
| O=C(CCCN1C(=O)c2ccccc2C1=O)NCc1ccco1 | 10.9 |
| Cc1ccc([N+](=O)[O-])cc1N | 17.5 |
| CCOc1ccccc1NC(=O)CCS(=O)(=O)c1cccc2nonc12 | 2.2 |
| O=C(NCc1ccccc1)c1noc2c1CCCCC2 | 1.5 |
| O=C(Nc1ccc(Cl)cn1)C1CCN(c2ncnc3c2nc2n3CCCCC2)CC1 | -0.595 |
| COc1ccc(S(=O)(=O)N2CCN(CC(=O)Nc3cc(C(F)(F)F)ccc3Cl)CC2)cc1 | 2.29 |
| [O-][N+]12CC[N+]([O-])(CC1)c1ccccc12 | 4.27 |
| Cc1cc(C)cc(N(CC(=O)NC(C)(C)C)C(=O)CCC(=O)Nc2nccs2)c1 | 8.88 |
| Cc1cccc(N(C(=O)Cc2cccs2)C(C(=O)NC2CCCC2)c2ccncc2)c1 (centres unmarked) | 11.2 |
| NC1=NC(=O)/C(=C\c2ccc(-c3ccc(Cl)cc3)o2)S1 | 10.1 |

| SMILES | hERG current change (%, negative = inhibition) at 1uM [%] |
| --- | --- |
| O=C(Cn1c(=O)oc2ccccc21)Nc1nc(-c2ccc(Br)cc2)cs1 | -9.32 |
| O=C(NCc1ccncc1)/C(=C\c1ccc(F)cc1)NC(=O)c1ccccc1 | -52.3 |
| CC(C(=O)N1CCN(C(=O)c2ccco2)CC1)n1sc2ccccc2c1=O (centres unmarked) | 5.54 |
| CCc1ccc(/C=N\NC(=O)c2ccc(Br)o2)s1 | 1.9 |
| CCOC(=O)c1cnc(SC)nc1Oc1cccc(NS(=O)(=O)c2ccc(F)cc2)c1 | -16 |
| Cc1ccc(C)c2[nH]c(=O)c(CN(Cc3ccco3)C(=S)NCC3CCCO3)cc12 (centres unmarked) | 7.45 |
| COC(=O)c1ccc(OCCCCN2CC(C)OC(C)C2)cc1.O=C(O)C(=O)O (centres unmarked) | 2.55 |
| O=C(N/N=C\c1ccc(-c2ccccc2[N+](=O)[O-])o1)C1COc2cc3ccccc3cc2O1 (centres unmarked) | -9.75 |
| CCCNC(=O)/C(=C/c1cn(S(=O)(=O)N(C)C)c2ccccc12)NC(=O)c1ccc(OC)cc1 | 7.96 |
| CCOC(=O)C1(Cc2ccccc2)CCN(Cc2ccon2)CC1 | 6.27 |
| O=S(=O)(/N=C(/Nc1cccc2ccccc12)c1ccccc1)c1cccs1 | 15.4 |
| COc1cccc(-c2nn(-c3ccc(F)cc3)cc2C(=O)NCC2CCCO2)c1 (centres unmarked) | -23 |
| CCCCCCNc1nc(-c2ccc(OC)cc2)c(CCC(=O)O)s1 | 4.21 |
| Nc1nonc1C(=O)OCC(=O)c1ccc(Cl)cc1 | 7.59 |
| Cn1cnnc1SCC(=O)N1CCC(Cc2ccccc2)CC1 | -3.72 |
| O=C1OC2(CCCCC2)OC(=O)C1=CNc1nccs1 | 14 |
| Cc1cc(-c2ccccc2)nc(N/N=C/c2ccc(N(C)C)cc2)n1 | 11.8 |
| N#CC1=C(N)Oc2cc3c(cc2C1c1ccc(Cl)cc1)OCO3 (centres unmarked) | 9.88 |
